Consider 115 sequences from the BET-seq Pho4 binding data (Le et al. 2018).

This is one part of the list. These are noisy estimates, calculated here from bound and input reads.

This assay addresses T1, Pho4 (S. cerevisiae) (UniProt P07270).
T1 sequence: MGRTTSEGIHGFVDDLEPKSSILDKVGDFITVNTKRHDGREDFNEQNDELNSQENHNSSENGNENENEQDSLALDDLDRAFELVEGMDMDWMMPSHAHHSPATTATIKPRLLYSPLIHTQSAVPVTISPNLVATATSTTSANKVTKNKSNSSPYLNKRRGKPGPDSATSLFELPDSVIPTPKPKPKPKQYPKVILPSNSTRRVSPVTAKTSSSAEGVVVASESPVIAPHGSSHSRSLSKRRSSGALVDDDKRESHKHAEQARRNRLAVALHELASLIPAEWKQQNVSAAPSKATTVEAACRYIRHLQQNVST
Nature of the assay: relative binding free energy (BET-seq); higher = weaker binding. Conditions: reference: library average.
For AGTTTCACGTGGTAGG, the “relative binding free energy” value came out at 0.26 kcal/mol. With ATGTGCACGTGGTTTA the figure was -0.1 kcal/mol; with TAAGTCACGTGGGTAC, 0.02 kcal/mol. To TAAGTCACGTGTGGGC belongs 0.1 kcal/mol. With GAAGACACGTGAAGTG, the “relative binding free energy” value is 0.33 kcal/mol.

In the case of AGGGCCACGTGGGCGT, the “relative binding free energy” value is -0.42 kcal/mol. For AATGACACGTGCGGTG, the “relative binding free energy” value is -0.05 kcal/mol. To TTGACCACGTGAGTGG belongs 0.12 kcal/mol; to GGTTTCACGTGGTTCT, 0.28 kcal/mol. With TAGTCCACGTGGTGTC the figure was 0.06 kcal/mol; with GTATTCACGTGAGCTG, 0.44 kcal/mol. With ATTAGCACGTGTAGTG the figure was 0 kcal/mol; with TGGAGCACGTGTGAAT, 0.2 kcal/mol; with TGCGTCACGTGCTGGA, 0.07 kcal/mol. For GCTATCACGTGGTTGG, the “relative binding free energy” value was 0.12 kcal/mol.

Regarding CTAGGCACGTGTGTGT, the “relative binding free energy” value was -0.12 kcal/mol. As for TGCAGCACGTGGGTTG, the “relative binding free energy” value was -0.12 kcal/mol. With TATGACACGTGTTGCT the figure was -0.03 kcal/mol. To TAGAACACGTGTATGT belongs -0.02 kcal/mol. With TGGGGCACGTGGCTTA the figure was -0.06 kcal/mol; with TGTGTCACGTGAGCAA, 0.12 kcal/mol; with GATGACACGTGTTGGT, 0.11 kcal/mol. Regarding GGAGTCACGTGGTGTG, the “relative binding free energy” value is 0.07 kcal/mol. To TTTATCACGTGAAGGC belongs 0.3 kcal/mol; to ATGAGCACGTGAGGTG, 0.07 kcal/mol; to CGGTACACGTGTATTA, 0.07 kcal/mol. As to TTGTGCACGTGGCTCT, the “relative binding free energy” value is -0.08 kcal/mol. Consider GTTGTCACGTGCGAAT, for which the “relative binding free energy” value was 0.03 kcal/mol. For AGGAGCACGTGCAGGT, the “relative binding free energy” value is -0.14 kcal/mol. Consider AGTTCCACGTGTATGT, for which the “relative binding free energy” value was -0.07 kcal/mol. For CGGGCCACGTGTATGT, the “relative binding free energy” value is -0.12 kcal/mol. With GGGTTCACGTGGCTTG the figure was 0.26 kcal/mol; with TGAGGCACGTGTGCTA, -0.21 kcal/mol. As for AGGTGCACGTGTTGTA, the “relative binding free energy” value is -0.02 kcal/mol.

For the sequence GTTCTCACGTGTTAAG, the “relative binding free energy” value was 0.28 kcal/mol. Turning to TAAGTCACGTGGGATT, the “relative binding free energy” value came to 0.03 kcal/mol. For the sequence TGATCCACGTGGTTTT, the “relative binding free energy” value is 0.02 kcal/mol.

As for TGTAGCACGTGTGGCG, the “relative binding free energy” value was -0.03 kcal/mol. For CGTTTCACGTGGGGTG, the “relative binding free energy” value was 0.16 kcal/mol. To TGAGACACGTGTAAGT belongs 0.15 kcal/mol; to TTTTACACGTGAAGCG, 0.3 kcal/mol; to TGGTTCACGTGAGCAG, 0.37 kcal/mol. With TTAGGCACGTGTAGAG the figure was 0.07 kcal/mol; with ATCTTCACGTGTGATT, 0.36 kcal/mol; with TGAATCACGTGATCGG, 0.17 kcal/mol. For GGAGTCACGTGCGGTA, the “relative binding free energy” value turned out to be 0.09 kcal/mol. In the case of GGAATCACGTGGTGGT, the “relative binding free energy” value is 0.19 kcal/mol.

With GAATTCACGTGAATGT, the “relative binding free energy” value turned out to be 0.31 kcal/mol. To GCTTACACGTGGGATT belongs 0.11 kcal/mol; to CTTGTCACGTGTGGCA, 0.13 kcal/mol; to AGTTCCACGTGGAGGG, -0.06 kcal/mol.

For the sequence TTAGTCACGTGCACTG, the “relative binding free energy” value stood at 0.13 kcal/mol. To TGTTACACGTGTCAGC belongs 0.35 kcal/mol. For GTAAACACGTGGAGTG, the “relative binding free energy” value was -0.08 kcal/mol. Regarding GGGAGCACGTGATTGA, the “relative binding free energy” value amounted to 0.12 kcal/mol.

For TTTTTCACGTGACCGG, the “relative binding free energy” value is 0.43 kcal/mol.

On to TGCGGCACGTGGTTAA, for which the “relative binding free energy” value is -0.12 kcal/mol.

Regarding CATAACACGTGTTTGT, the “relative binding free energy” value was -0.14 kcal/mol. To ACGTTCACGTGGTGGC belongs 0.17 kcal/mol; to TTGCACACGTGCGGTG, -0.01 kcal/mol. With TCGTGCACGTGGAGTC the figure was 0.09 kcal/mol; with TTTGACACGTGTTTGT, 0.03 kcal/mol.

In the case of TGTGACACGTGTCAGT, the “relative binding free energy” value was -0.03 kcal/mol. For the sequence GCTTTCACGTGGTTGC, the “relative binding free energy” value worked out at 0.49 kcal/mol. To ATCGGCACGTGCTGTT belongs -0.06 kcal/mol; to CTTTTCACGTGGTTAT, 0.21 kcal/mol.

Consider AAGTTCACGTGGATGG, for which the “relative binding free energy” value was determined as 0.13 kcal/mol.

Consider GTGGTCACGTGTTCAG, for which the “relative binding free energy” value stood at 0.09 kcal/mol. For the sequence TTAGTCACGTGGGCAT, the “relative binding free energy” value was -0.14 kcal/mol.

In the case of ATGTACACGTGTTTTT, the “relative binding free energy” value is 0.14 kcal/mol. With GGGTTCACGTGGCGGT the figure was 0.32 kcal/mol; with TCATGCACGTGCAGGT, -0.07 kcal/mol; with GTCGACACGTGTCGGG, 0.13 kcal/mol. With ATTGGCACGTGGCAGG the figure was -0.14 kcal/mol. With GAGGTCACGTGTAGTA the figure was 0.26 kcal/mol; with AAAGTCACGTGTGGGA, 0.13 kcal/mol. Take GGACTCACGTGTTGTT: the “relative binding free energy” value stood at 0.21 kcal/mol. Consider GATTCCACGTGTGATG, for which the “relative binding free energy” value came to 0.5 kcal/mol. For AAGAGCACGTGGATGT, the “relative binding free energy” value is -0.04 kcal/mol. Turning to GAGTTCACGTGACAGG, the “relative binding free energy” value was 0.41 kcal/mol.

With GGTGTCACGTGCTGTC, the “relative binding free energy” value was found to be 0.11 kcal/mol.

Take TAAAACACGTGGGTTA: the “relative binding free energy” value is -0.1 kcal/mol.

Take CAAAGCACGTGGTTGT: the “relative binding free energy” value was -0.04 kcal/mol. To TAGTTCACGTGTACTT belongs 0.16 kcal/mol; to TGGTGCACGTGCTAAG, -0.22 kcal/mol; to CTTGGCACGTGGGTTC, -0.32 kcal/mol. As for GTGTGCACGTGTCCAG, the “relative binding free energy” value is -0.01 kcal/mol. To ATTAGCACGTGGTACG belongs -0.05 kcal/mol; to AATGCCACGTGTTAGT, -0.07 kcal/mol; to ACGTGCACGTGAATTG, 0.08 kcal/mol.

Turning to AACGTCACGTGTGGAG, the “relative binding free energy” value came out at 0.15 kcal/mol.

Consider CGGGTCACGTGTGTTC, for which the “relative binding free energy” value was determined as 0.18 kcal/mol. To AGATTCACGTGATGTG belongs 0.22 kcal/mol. Turning to TGGTCCACGTGGGTGC, the “relative binding free energy” value is -0.2 kcal/mol. For the sequence TGGGTCACGTGTTGAG, the “relative binding free energy” value worked out at 0.14 kcal/mol.

Turning to AAAAGCACGTGGCGGG, the “relative binding free energy” value was -0.22 kcal/mol.

Regarding GTAATCACGTGTTGAT, the “relative binding free energy” value was 0.21 kcal/mol. To TTTACCACGTGATAGT belongs 0.1 kcal/mol; to ATTGTCACGTGCGGGC, 0.09 kcal/mol. As to TTATACACGTGGGGTA, the “relative binding free energy” value is -0.18 kcal/mol. With TGGCTCACGTGGTGTG the figure was 0.12 kcal/mol; with GGGTGCACGTGGCTGG, -0.05 kcal/mol; with TTTGACACGTGTAATA, 0.09 kcal/mol. With GATGTCACGTGAGGTG the figure was 0.31 kcal/mol.

Take TGGGTCACGTGGATTT: the “relative binding free energy” value amounted to 0.17 kcal/mol. With GGGTACACGTGACGGG, the “relative binding free energy” value turned out to be 0.33 kcal/mol. As to ATTATCACGTGCATTG, the “relative binding free energy” value came out at 0.11 kcal/mol. To AGGTTCACGTGCGTTT belongs 0.3 kcal/mol; to TCACTCACGTGTGTGG, 0.21 kcal/mol.

As for TATATCACGTGCGCGG, the “relative binding free energy” value was 0.1 kcal/mol. As to CAGGTCACGTGAGTAA, the “relative binding free energy” value is 0.36 kcal/mol. GGTTGCACGTGCGGAC: the “relative binding free energy” value came out at 0.06 kcal/mol. Turning to GCGGGCACGTGTGCTT, the “relative binding free energy” value was -0.03 kcal/mol. GGCAGCACGTGGTGTA: the “relative binding free energy” value is -0.09 kcal/mol. With ATGGGCACGTGCGATC the figure was 0.05 kcal/mol.
